From PubChem BioAssay AID485313 (National Center for Advancing Translational Sciences (NCATS), 2010)
Among all 320,000 compounds or so, about 7,600 (2.4%) were called active. The inconclusive results got no clear call from the source; some entries with a clear call stand among them for comparison. Calls come from the whole dose curve; as a rule, active = well fitted activation curve with a large enough effect; inconclusive = small, poorly fitted or top-dose-only effect; inactive = no such curve, though single readings can be large or run the other way. Potencies of inconclusive entries are left out as doubtful fits.

Assay: qHTS Assay for NPC1 Promoter Activators; note: nearly all actives have a fitted effect of over 60% in size;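 for activation: reporter is driven by a mutant NPC1 promoter; % of control where 0% means no effect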
Conditions: Huh7 NPC1 promoter luciferase reporter, 24 h; series mostly up to 9.22 µM; activation: at the top concentration
Outline: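 Luminescence from an NPC1 promoter-driven luciferase reporter in stably transfected Huh7 cells was measured after 24 h compound treatment at 37 °C, followed by 10 min ambient incubation with luciferase detection reagent.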
Potency is the fitted concentration of half-maximal effect; tags give direction and shape of the fitted curve.

Row | Compound | Potency | activation
1 | C=CC(C)N1C(=O)S/C(=C\c2ccc(N3CCOCC3)cc2C)C1=O (configuration not stated) | inconclusive [activator, partial curve] | –
2 | Cc1ccc(Nc2ccc(C(=O)O)cc2N)cc1 | inconclusive [activator, partial curve] | –
3 | CSc1ccccc1OCc1cc(C(=O)N2CCSCC2)no1 | active: 2.24 µM | –
4 | O=C(C1CCCN1S(=O)(=O)c1cccc2cccnc12)N1CCN(c2ccccc2)CC1 (configuration not stated) | – | inactive: 1.62%
5 | O=c1cc(Cl)[nH]c(=O)n1CCNc1ncc(C(F)(F)F)cc1Cl | inconclusive [activator, partial curve] | –
6 | O=[N+]([O-])c1ccc(N/N=C/c2ccccc2)c(F)c1 | inconclusive [activator, single point] | –
7 | COc1ccc(C2C(C(=O)O)c3ccccc3C(=O)N2Cc2ccco2)cc1 (configuration not stated) | – | inactive: -2.84%
8 | Cc1cccnc1NC(=O)COc1ccc2c(c1)CCC2 | inconclusive [activator, partial curve] | –
9 | Oc1cccc(/C=N\Nc2nncc(-c3ccccc3)n2)c1 | inconclusive [activator, single point] | –
10 | O=C(Nc1nc(-c2nc3ccccc3s2)cs1)c1ccco1 | inconclusive [activator, partial curve] | –
11 | COc1ccc(C(=O)/C=C/N2CCCCC2)cc1OC | inconclusive [activator, partial curve] | –
12 | CCOc1ccccc1NC(=O)C1CCN(S(C)(=O)=O)CC1 | – | inactive: 6.27%
13 | Cc1ccc(-n2c(N)c(-c3nc4ccccc4n3C)sc2=S)cc1 | inconclusive [activator, partial curve] | –
14 | CC(C(=O)N1CCCCC1)n1sc2ccccc2c1=O (configuration not stated) | inconclusive [activator, partial curve] | –
15 | O=C(Nc1ccc2nc(-c3ccccc3)[nH]c2c1)c1ccco1 | inconclusive [activator, single point] | –
16 | C/C(=N\Nc1ccc(F)cc1F)c1ccccc1O | – | inactive: 1.53%
17 | CC(C)(C)C(=O)OCOC(=O)[C@@H]1N2C(=O)[C@@H](N=CN3CCCCCC3)[C@H]2SC1(C)C | – | inactive: 0.536%
18 | N#Cc1c(NC(=O)C2CCCO2)sc2c1CCCCCC2 (configuration not stated) | inconclusive [activator, single point] | –
19 | CC(=O)Nc1nc2ccc(Br)cc2s1 | active: 3.16 µM | –
20 | O=C(COc1ccccc1)Nc1ccc2c(c1)nc1n2CCSC1 | inconclusive [activator, single point] | –
21 | Cc1cc(=O)oc2cc(NC(=O)c3cc(F)ccc3F)ccc12 | inconclusive [activator, partial curve] | –
22 | S=C(Nc1ccc(Cl)cc1Cl)N1CCCC1 | inconclusive [activator, partial curve] | –
23 | CCCCCN1C=CC(=C2C(=O)c3ccccc3C2=O)C=C1 | active: 0.126 µM | –
24 | COc1cccc(N2C(=NC(=O)CCC3CCCC3)SC3CS(=O)(=O)CC32)c1 (configuration not stated) | – | inactive: -0.897%
25 | CCOC(=O)COn1c(=O)c(-c2cc3ccccc3o2)[n+]([O-])c2ccccc21 | inconclusive [activator, single point] | –
26 | O=C(NCc1ccco1)c1sc2cccc(F)c2c1Cl | inconclusive [activator, partial curve] | –

Row | Compound | Potency | activation
27 | CC1CN(C(=O)c2cc([N+](=O)[O-])cc([N+](=O)[O-])c2)CC(C)O1 (configuration not stated) | inconclusive [activator, single point] | –
28 | O=C(Oc1ccc(-c2ccccc2)cc1)N1CCOCC1 | active: 2.82 µM | –
29 | Cc1nc(C(=O)NNC(=O)c2cccc(Cl)c2)c(C(F)(F)F)o1 | – | inactive: -2.66%
30 | CCOC(=O)C1C(=O)C=C(Nc2ccccc2F)CC1c1ccccc1 (configuration not stated) | inconclusive [activator, single point] | –
31 | COc1cc(C(=O)Nc2ccc(-c3nc4cc(C)ccc4o3)c(O)c2)cc(OC)c1OC | – | inactive: -3.58%
32 | CNC(=O)NC(=O)COc1ccc2oc3c(c2c1)CCCC3 | inconclusive [activator, single point] | –
33 | CC(=O)Nc1cc2nn(-c3ccccc3)nc2cc1C | active: 0.631 µM | –
34 | COc1ccccc1NC(=O)C(Cc1ccc(Cl)cc1)c1nn[nH]n1 (configuration not stated) | – | inactive: 1.79%
35 | S=c1[nH]nc(-c2ccncc2)n1/N=C/c1cccc(Cl)c1 | – | inactive: -4.37%
36 | c1cnc(N2CCN(c3ccc4ccccc4n3)CC2)nc1 | active: 1.41 µM | –
37 | C=CCOC(=O)c1sc(NC(=O)c2ccco2)nc1C | inconclusive [activator, partial curve] | –
38 | CC(C)(C)N1C(=O)c2ccc(C(=O)Nc3ccc(O)cc3)cc2C1=O | inconclusive [activator, partial curve] | –
39 | O=C(COc1ccc2c3c(c(=O)oc2c1)CCC3)N1CCCCC1 | inconclusive [activator, single point] | –
40 | O=C(COC(=O)c1ccccc1NCc1ccco1)Nc1ccc2c(c1)OCO2 | inconclusive [activator, partial curve] | –
41 | Cc1ccc(NC(=O)CSc2nc3ccccc3c(=O)n2CCCN2CCCCC2)cc1Cl | – | inactive: -8.89%
42 | COc1ccc(S(=O)(=O)NCCc2nnc3ccc(SCC(=O)Nc4nc(C)cs4)nn23)cc1 | – | inactive: -2.38%
43 | Cc1ccc(OCCSc2ncnc3nc[nH]c23)cc1 | inconclusive [activator, partial curve] | –
44 | CC(C)c1ccc(OCCCCCN2CCOCC2)cc1 | inconclusive [activator, partial curve] | –
45 | Cc1ccsc1C(=O)OCC(=O)c1ccc[nH]1 | inconclusive [activator, partial curve] | –
46 | O=C(/C=C/c1ccco1)c1ccccc1O | – | inactive: -4.47%
47 | O=C(COc1ccc(Br)cc1)Nc1ccc(-c2nnc(-c3ccco3)o2)cc1 | active: 3.98 µM | –
48 | COc1ccc(-c2nnc(SCc3ccccc3F)o2)cc1 | active: 1.26 µM | –
49 | O=c1oc2ccccc2cc1-c1ccc(O)cc1 | inconclusive [activator, single point] | –
50 | CCOc1ccc(/C=N/Nc2ccccn2)cc1OC | inconclusive [activator, single point] | –
51 | CCCCCCN1C=CC(=C2C(=O)c3ccccc3C2=O)C=C1 | inconclusive [activator, full curve, poor fit] | –
52 | Cc1cccc(NC(=S)NNC(=O)c2csc3c2CCCC3)c1 | inconclusive [activator, single point] | –

Row | Compound | Potency | activation
53 | Cc1ccccc1OCC(=O)Nc1cccc(C(=O)O)c1 | inconclusive [activator, partial curve] | –
54 | COc1ccc(OCc2cc(C(=O)N(Cc3nccn3C)C(C)C)no2)c2ccccc12 | inconclusive [activator, partial curve] | –
55 | O=C(Nc1ccc2ccccc2c1)c1ccccc1O | active: 3.98 µM | –
56 | O=C(O)COc1cccc(NC(=O)c2ccccc2)c1 | – | inactive: 1.7%
57 | Cc1ccnc(N/N=C/c2ccco2)n1 | inconclusive [activator, single point] | –
58 | CCCNC(=O)C/C(C)=N/NC(=O)COc1ccc(C)cc1Br | inconclusive [activator, single point] | –
59 | COc1ccc(Nc2nc(-c3ccccc3)nc3ccccc23)cc1 | – | inactive: 1.96%
60 | O=C(/C=C/c1ccccc1)Nc1cccnc1Oc1ccccc1F | inconclusive [activator, partial curve] | –
61 | O=C(O)/C=C/C(=O)Nc1cccnc1 | – | inactive: 2.04%
62 | Cc1ccc(/C=C/C(=O)NCc2cccs2)c(C)c1 | inconclusive [activator, single point] | –
63 | O=C(NC(=S)NCC1COc2ccccc2O1)c1ccccc1 (configuration not stated) | – | inactive: -0.0705%
64 | CCCn1c(SCC(=O)N2CCCCC2)nnc1C(C)C | inconclusive [activator, partial curve] | –
65 | O=C(c1cc(COc2ccc(F)cc2F)on1)N1CCOCC1 | inconclusive [activator, single point] | –
66 | CCCSc1nnc(NC(=O)Nc2ccccc2)s1 | inconclusive [activator, single point] | –
67 | Nc1nc(CSc2nc3ccccc3[nH]2)cs1 | inconclusive [activator, partial curve] | –
68 | Clc1ccc(Nc2ncnc3c2cnn3-c2ccccc2)cc1 | inconclusive [activator, partial curve] | –
69 | CC(=O)c1cccc(NC(=S)NC(=O)c2ccc(C)cc2)c1 | active: 3.16 µM | –
70 | COc1ccc(CNC(=O)CSc2ccsc2[N+](=O)[O-])cc1 | inconclusive [activator, partial curve] | –
71 | Cc1nc2ccc(NC(=O)CS(=O)(=O)c3ccccc3)cc2s1 | inconclusive [activator, partial curve] | –
72 | CCOC(=O)c1sc2nc3n(c(=O)c2c1C)CCCCC3 | inconclusive [activator, single point] | –
73 | O=C(Nc1cccc(O)c1)c1ccc(NC(=O)c2cccs2)cc1 | inconclusive [activator, single point] | –
74 | COc1ccc(CNC(=O)Nc2ccccc2)cc1 | inconclusive [activator, partial curve] | –
75 | CC1(C)Cc2c(sc(NC(=O)C(=O)N3CCCC3)c2C(N)=O)CO1 | – | inactive: -0.769%
76 | O=C(CNC(=O)c1cccc(Cl)c1)NCCCSc1ccccc1 | – | inactive: -0.461%
77 | Cc1ccc(C(=O)Nc2nc3c(s2)CCCC3)o1 | active: 3.16 µM | –
